# Results published in PMC4336329 (PLoS ONE, 2015).
# The campaign covered roughly 310,000 compounds. About 2,200 (0.71%) showed an effect of 50% or more. The effect is printed as a negative number. Some of the results follow.
# Biological target: human ether-à-go-go-related gene (hERG) potassium channel (human, UniProt Q12809)
# Experiment: primary screen, population patch clamp on CHO cells stably expressing hERG
# human ether-à-go-go-related gene (hERG) potassium channel, sequence (Q12809 whole entry, looked up): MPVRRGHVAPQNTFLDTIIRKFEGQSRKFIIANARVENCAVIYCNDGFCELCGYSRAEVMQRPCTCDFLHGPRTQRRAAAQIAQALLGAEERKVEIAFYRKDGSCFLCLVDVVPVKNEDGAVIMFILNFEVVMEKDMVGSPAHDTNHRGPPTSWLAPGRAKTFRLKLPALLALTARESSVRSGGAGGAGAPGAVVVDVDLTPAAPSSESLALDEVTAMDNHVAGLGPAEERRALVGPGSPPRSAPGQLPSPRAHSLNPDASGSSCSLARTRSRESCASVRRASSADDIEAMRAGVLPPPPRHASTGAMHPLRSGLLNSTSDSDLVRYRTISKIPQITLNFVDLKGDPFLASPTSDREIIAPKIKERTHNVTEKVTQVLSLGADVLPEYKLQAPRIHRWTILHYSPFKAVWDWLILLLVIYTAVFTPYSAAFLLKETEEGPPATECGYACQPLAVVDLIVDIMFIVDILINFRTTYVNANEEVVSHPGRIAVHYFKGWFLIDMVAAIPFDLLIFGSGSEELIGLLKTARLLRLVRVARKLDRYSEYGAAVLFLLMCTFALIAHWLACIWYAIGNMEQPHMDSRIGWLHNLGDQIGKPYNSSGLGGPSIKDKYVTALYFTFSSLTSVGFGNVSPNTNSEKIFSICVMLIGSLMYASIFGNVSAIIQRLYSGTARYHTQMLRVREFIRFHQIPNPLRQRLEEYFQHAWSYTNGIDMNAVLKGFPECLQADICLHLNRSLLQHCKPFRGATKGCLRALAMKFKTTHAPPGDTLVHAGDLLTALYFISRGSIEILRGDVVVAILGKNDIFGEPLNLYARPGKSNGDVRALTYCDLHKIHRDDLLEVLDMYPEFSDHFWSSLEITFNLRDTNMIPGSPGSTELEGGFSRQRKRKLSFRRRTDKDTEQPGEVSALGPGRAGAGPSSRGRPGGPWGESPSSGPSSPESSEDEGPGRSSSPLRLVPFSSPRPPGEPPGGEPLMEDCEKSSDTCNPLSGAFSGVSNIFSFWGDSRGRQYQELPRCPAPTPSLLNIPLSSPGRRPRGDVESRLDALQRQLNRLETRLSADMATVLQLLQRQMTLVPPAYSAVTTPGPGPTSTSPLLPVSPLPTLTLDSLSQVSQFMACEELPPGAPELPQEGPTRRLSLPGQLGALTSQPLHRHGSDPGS
row,SMILES,"hERG current change (%, negative = inhibition) at 1uM [%]"
1,CCc1cccc2c(C(=O)COC(=O)c3ccccc3)c[nH]c12,8.88
2,O=[N+]([O-])c1ccc(CSc2nnc(-c3cnccn3)o2)cc1,10.1
3,CCOc1ccccc1OCC(=O)OC(C)C(=O)Nc1ncc(Cl)cc1Cl (stereo not shown),9.83
4,Cc1ccccc1C(=O)Nc1nnc(-c2ccncc2)o1,7.81
5,O=S(=O)(c1ccc2c(c1)CCCC2)N1CCNCC1,12.5
6,CC(C)NCC(O)c1ccc(O)c(O)c1.Cl (stereo not shown),14.2
7,Cc1c(NC(=O)C(C)OC(=O)CNC(=O)c2ccc(C(C)(C)C)cc2)c(=O)n(-c2ccccc2)n1C (stereo not shown),11.7
8,Cc1cc(C2C(C#N)=C(N)SC(N)=C2C#N)c(C)s1,11.3
9,S=c1nc(-c2ccccc2)oc2c1CCCC2,5.57
10,Cl.O=C(CN1CCCCC1)Nc1cccc2c1OCO2,12.1
11,CNCCOc1ccc(Cl)c(Cl)c1.O=C(O)C(=O)O,10.2
12,S=C(c1ccc(-c2ccccc2Cl)o1)N1CCCCC1,4.52
13,CC(C)(C)N(Cc1ccccc1)C(=O)CSc1nc2ccccc2c(=O)[nH]1,4.8
14,COc1ccc(C(C)=O)c(OC(=O)c2ccc(OC)c(OC)c2)c1,12.3
15,O=C(NCc1ccc2c(c1)OCO2)c1ccc(CSCc2ccccc2Cl)o1,5.57
16,Cc1ccnc(NC(=O)c2cccc(S(=O)(=O)N3CCN(c4ccc(F)cc4)CC3)c2)c1,-2.47
17,CCC(C)N1C(=O)S/C(=C/c2ccc3c(c2)n(C)c(=O)n3C)C1=O (stereo not shown),12.4
18,O=C(O)CC(SCC(=O)Nc1ccccc1)C(=O)O (stereo not shown),8.5
19,O=C(Nc1ccc(Cl)cc1)OC1CN2CCC1CC2 (stereo not shown),10.1
20,Cc1cc(C)nc(Nc2ccc(C(=O)O)cc2)n1.Cl,-1.74
21,COc1ccc2ccccc2c1CNCCN1CCOCC1.Cl,17.8
22,COCCn1cnc2c1c(=O)n(CC(=O)O)c(=O)n2Cc1ccccc1,13.4

row,SMILES,"hERG current change (%, negative = inhibition) at 1uM [%]"
1,CCCCNC(=O)C1C2C=CC(C2)C1C(=O)O (stereo not shown),11.5
2,CC1=C(C(=O)Nc2ccccc2)C(c2ccco2)NC(=O)N1 (stereo not shown),12
3,O=C1c2ccccc2S(=O)(=O)N1CCS(=O)(=O)c1ccc(F)cc1,3.72
4,CCN1C=C(Cc2cccs2)C2=C(C1)C(c1cccs1)C(C#N)=C(N)O2 (stereo not shown),3.03
5,CCOc1ccc(S(=O)(=O)N/N=C(\C)Cc2ccc(OC)cc2)cc1,8.36
6,CCc1noc(C)c1C(=O)N1CCN(S(=O)(=O)c2ccc(C)cc2)CC1,7.83
7,COC(=O)C1=C(c2cccc3c2S(=O)(=O)c2ccccc2-3)C[C@@H]2CC[C@H]1N2C(=O)N1CCOCC1,0.516
8,Cc1ccc(C(c2nnnn2CS(=O)(=O)c2ccc(C)cc2)N2CCN(c3ncccn3)CC2)cc1 (stereo not shown),11.7
9,COC(=O)c1cccc(C23CC4(C2)[C@H](CN(CC2CCCCC2)[C@@H]4c2ccccc2)C3c2ccccc2)c1 (stereo partly shown),-1.4
10,CC(NC(=O)[C@H](C)N1C(=O)N2CCc3c([nH]c4ccccc34)[C@@]2(C)C1=O)c1ccccc1 (stereo partly shown),-1.95
11,Cc1ccc(NC(=O)Cc2ccc(Cl)cc2)nc1,14.1
12,O=[N+]([O-])c1ccc(Oc2ccc(-c3cnc4ccccc4n3)cc2[N+](=O)[O-])cc1,12.7
13,CCSc1cc(N2CCOCC2)nc(-c2ccc(Cl)cc2)n1,0.632
14,O=C(C1CCCN(c2ncnc3c2nc2n3CCCCC2)C1)N1CCCCC1 (stereo not shown),2.43
15,CN1C(=O)CC(NNC(=O)c2ccc(Cl)cc2)C1=O (stereo not shown),1.38
16,COc1ccc(C(=O)Nc2ccc(S(=O)(=O)N3CCc4ccccc43)cc2)cc1,12
17,CC1=C(C#N)C(NC(=O)c2ccco2)(C(F)(F)F)C(=O)N1 (stereo not shown),9.66
18,COC(=O)C1=C(C)N(CC2CC2)C(=O)N[C@H]1c1ccc(Br)cc1,5.25
19,Cc1cc(NC(=O)COc2ccccc2C)ccc1NC(=O)c1ccco1,9.4
20,Cc1cc(NC(=O)Cn2nc(C(=O)O)c3ccccc3c2=O)ccc1Br,5.92
21,COc1cc2c(cc1OC)C(C)N(C(=O)c1nccnc1C(=O)O)CC2 (stereo not shown),11.7
22,O=S(=O)(NCC(c1cccnc1)N1CCN(Cc2ccccc2)CC1)c1ccc(F)cc1 (stereo not shown),-42.6

row,SMILES,"hERG current change (%, negative = inhibition) at 1uM [%]"
1,O=C(COc1ccccc1Br)c1ccc2c(c1)OCO2,-13.7
2,C/C(=C\c1ccccc1F)C(=O)c1c(C)cc(C)[nH]c1=O,11.4
3,Cc1cc(SCC(=O)OCC(=O)N2CCCC2=O)c(C)cc1Br,5.68
4,CCCCCCc1nc(C(N)=O)c2[nH]c(=O)n(-c3ccccc3F)c2n1,10.1
5,Cc1occc1C(=O)NNC(=O)c1ccccc1Br,3.06
6,CC1(C)CC(=O)C2=C(C1)N=C1SCCC(=O)N1C2c1ccc(C(F)(F)F)cc1 (stereo not shown),0.759
7,O=C(CSc1nc(=O)n(CCCN2CCOCC2)c2c1CCCC2)Nc1cccc(Cl)c1,-13
8,COc1ccc(/C=C2\SC(=O)N(CCC(=O)Nc3ccccc3)C2=O)cc1OC,5.38
9,COc1ccccc1C1=CC(=O)C[C@H](c2ccc3c(c2)OCO3)C1,18.1
10,CC(O)CNc1ccc([N+](=O)[O-])cc1S(=O)(=O)N1CCOCC1 (stereo not shown),12
11,COc1cccc(/C=N\NC(=O)Cn2nnc3ccccc32)c1O,20.1
12,CC12CC(c3ccccc3O1)C(/C(N)=N/NC(=O)c1ccc(F)cc1)C(=O)N2 (stereo not shown),-2.99
13,Cc1ccc(S(=O)(=O)N2CCN(C(=O)CCc3c[nH]c4ccccc34)CC2)c(C)c1,12.6
14,CCCC1(C(=O)OC)NC(c2ccc(OC)cc2OC)C2C(=O)N(c3cccc(C(C)=O)c3)C(=O)C21 (stereo not shown),5.22
15,Cc1cc(=O)n2nc(N3CCCC(C(=O)NCc4ccc(Cl)cc4)C3)sc2n1 (stereo not shown),-21.5
16,CCOc1ccccc1-n1c(SCC(=O)N2CCCC2)nnc1-c1ccc(O)cc1,10.6
17,N#CC(c1ccccc1)N1CCOCC1 (stereo not shown),17.7
18,CCN(CC)CCN(C(=O)CCS(=O)(=O)c1ccccc1)c1nc2cc(OC)c(OC)cc2s1.Cl,-2.65
19,O=C(CN(Cc1ccco1)C(=O)CNS(=O)(=O)c1ccc(Cl)cc1)NCc1ccc(F)cc1,-15.8
20,Cc1nc2c(c(=O)c3ccccc3n2C)c(=O)n1C1CCCCCC1,11.9
21,CN(Cc1ccc(OC(F)F)cc1)C(=O)c1ccc2c(=O)n3c(nc2c1)CCC3,-17
22,Cc1nn(-c2ccccc2)cc1/C=N/NS(=O)(=O)c1ccccc1,-4.63

row,SMILES,"hERG current change (%, negative = inhibition) at 1uM [%]"
1,COc1ccc(NS(=O)(=O)Cc2ccccc2)cc1OC,-3.91
2,O=C(NC(=S)Nc1ccccc1Br)c1ccc2c(c1)OCO2,-67.9
3,O=C1C2C3C=CC(C3)C2C(=O)N1c1cccc(-c2nc3ccccc3o2)c1 (stereo not shown),20.5
4,CC1(C)CC(=O)C2=C(C1)Nc1nc(SCCN3CCOCC3)[nH]c(=O)c1C2c1cccs1 (stereo not shown),8.75
5,COc1ccc([N+](=O)[O-])cc1N=Cc1c(O)n(CCc2ccccc2)c(=O)n(C(C)C)c1=O,8.09
6,Cc1nccn1CC(=O)O,15.1
7,Cc1ccc(C)n1Cc1ccccc1Cl,12.7
8,COc1cc(N2CCOCC2)ccc1C=C(C#N)C#N,-5.91
9,COc1cc(OC)c(OC)cc1/C=N/NC(=O)c1ccc2nc[nH]c2c1,13
10,COc1cccc(-c2nc(SCC(=O)Nc3nc(-c4ccccc4)c(C)s3)[nH]c(=O)c2C#N)c1,18.3
11,CC(C)C(=O)NC(c1ccccc1)c1cc([N+](=O)[O-])c2cccnc2c1O (stereo not shown),-5.21
12,O=C(CCSCCC(=O)NCc1ccccc1)NCc1ccccc1,3.39
13,O=C(Nc1ccccc1Cl)C1CCCN(S(=O)(=O)c2ccc(F)cc2)C1 (stereo not shown),4.6
14,COc1cccc(S(=O)(=O)N2CCN(c3ccccc3F)CC2)c1,5.53
15,CSc1ncnc2c1cnn2-c1ccc(C)cc1C,1.88
16,COc1ccc(OC)c(NC(=O)c2ccccc2N(Cc2ccccc2)S(C)(=O)=O)c1,11.4
17,COc1ccccc1-c1nnc(SCCN2CCOCC2)n1-c1ccc(C)cc1,-2.44
18,Cc1ccc(C(C)C)cc1S(=O)(=O)Nc1cccnc1,15.7
19,CC1CCC2(CC1)NC(=O)N(CC(=O)Nc1ccc3c(c1)CCC3)C2=O (stereo not shown),0.161
20,Cc1csc(SCC(=O)Nc2ccc(S(=O)(=O)N3CCCC3)cc2)n1,9.7
21,CCOC(=O)N1CCN(C(=O)CCCn2c(=O)[nH]c3ccccc3c2=O)CC1,-2.67
22,Cc1ccc(CSc2ncn(-c3ccccc3)n2)cc1,7.18
